# Laboratory results as given in patent US20260234290A1, “Antibodies to Stat3 Decoy Oligonucleotide” (The Regents of the University of California, priority 2023, published 2026).
# B1: 4E4: anti-CS3D Fab from standard biopanning; VH SEQ ID NO: 1, VL SEQ ID NO: 2 (antibody, V domains shown)
# VH: [sequence of about 100 residues omitted]GLRYSSGWGQGTMVTVSS
# VL: QPVLTQPPSVSKGLRQTATLTCSGNSNNVGNAGAVWLQQHQGHPPKLLSYRNNNRPSGISERISASRSGNTASLTISGLQPEDEADYYCSAWDSSLRVQVFGGGTKLTVL
# Test system: CS3D
# Assay: BLI koff of purified Fabs from CS3D biopanning
# Assay type: binding
# Settings: measured at 2 μM Fab
# Protocol: First, standard biopanning (FIG. 1) was performed with Ag immobilized magnetic beads. A total of six rounds were performed with increasing stringency of washes and decreasing amounts of Ag per round. Assuming strong enrichment occurred continuously throughout the campaign, 95 colonies were randomly picked each round 4-6 (285 clones total) for candidate hit screening.
# In efforts to identify improved binders, BIAS was performed with identical clones picked previously that were randomly sequenced. […] Therefore, we hypothesized that strong growth/display propensity biases were a dominant factor during the campaign, leading primarily to the identification of low-affinity binders.
# Fluorescent activated sorting was applied to round 4 as both the population percentage and the normalized MFI of the shoulder population are the highest (FIG. 7). The shoulder population (top ~4%) was sorted along with the majority population (bottom ~96%) and both populations were used to infect TG1 (E. coli) cells. […]
# All buffers were filter sterilized with […] filters prior to preparing samples. […] Kinetic constants of Fabs were determined by Octet RED384 system with continuous shaking at 1000 rpm in RT. […] Data were analyzed using 1:1 interaction model on the ForteBio data analysis software 12.0. […]
molecule,measurement,value
B1,koff,0.111 s⁻¹
